Laboratory results taken from the supplement of paper PMC6746778.
This is one part of the list. Single values are uncertain, as repeats are few or missing.

How the values were obtained:
Assay in all cases: proliferation Z-score within cell line (SRB, relative to all inhibitors screened on that line); triple-negative breast cancer lines and a kinase inhibitor library; SRB is the sulforhodamine B protein stain; higher = less growth inhibition (more resistant)
Conditions in all cases: concentration: 1 µM; 4 days
Bt20 = system: Bt20
Bt549 = system: Bt549
HCC1143 = system: HCC1143
HCC1806 = system: HCC1806
HCC1937 = system: HCC1937
HCC38 = system: HCC38
HCC70 = system: HCC70
Hs578T = system: Hs578T
MDA-MB-231 = system: MDA-MB-231
MDA-MB-435s = system: MDA-MB-435s
MDA-MB-436 = system: MDA-MB-436
MDA-MB-453 = system: MDA-MB-453
MDA-MB-468 = system: MDA-MB-468
SKBR7 = system: SKBR7
SUM1315MO2 = system: SUM1315MO2
SUM149PT = system: SUM149PT
SUM159PT = system: SUM159PT
SUM185PE = system: SUM185PE
SUM229PE = system: SUM229PE
SUM52PE = system: SUM52PE
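Further: Single-dose primary screen of a 378-member kinase inhibitor library in 96-well plates, with growth read as absorbance of protein-bound SRB dye after TCA fixation.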

| SMILES | proliferation Z-score within cell line (Bt20) | proliferation Z-score within cell line (Bt549) | proliferation Z-score within cell line (HCC1143) | proliferation Z-score within cell line (HCC1806) | proliferation Z-score within cell line (HCC1937) | proliferation Z-score within cell line (HCC38) | proliferation Z-score within cell line (HCC70) | proliferation Z-score within cell line (Hs578T) | proliferation Z-score within cell line (MDA-MB-231) | proliferation Z-score within cell line (MDA-MB-435s) | proliferation Z-score within cell line (MDA-MB-436) | proliferation Z-score within cell line (MDA-MB-453) | proliferation Z-score within cell line (MDA-MB-468) | proliferation Z-score within cell line (SKBR7) | proliferation Z-score within cell line (SUM1315MO2) | proliferation Z-score within cell line (SUM149PT) | proliferation Z-score within cell line (SUM159PT) | proliferation Z-score within cell line (SUM185PE) | proliferation Z-score within cell line (SUM229PE) | proliferation Z-score within cell line (SUM52PE) |
| --- | --- | --- | --- | --- | --- | --- | --- | --- | --- | --- | --- | --- | --- | --- | --- | --- | --- | --- | --- | --- |
| NC1(Cc2ccc(Cl)cc2)CCN(c2ncnc3[nH]ccc23)CC1 | -0.273 | 0.121 | 0.542 | 0.911 | 0.0461 | 0.639 | -0.623 | 0.169 | 0.721 | 0.786 | 0.448 | 0.241 | -0.175 | 0.484 | 0.476 | 0.378 | 0.69 | -0.103 | 1.14 | 0.964 |
| CC[C@@H]1C(=O)N(C)c2cnc(Nc3ccc(C(=O)NC4CCN(C)CC4)cc3OC)nc2N1C1CCCC1 | -1.91 | -3.27 | -2.02 | -2.26 | -1.37 | -3.79 | -1.6 | -1.87 | -2.01 | -2.53 | -1.56 | -2.01 | -1.94 | -2.74 | -2.52 | -2.72 | -2.77 | -1.13 | -1.17 | -1.14 |
| Cn1cc(-c2[nH]c3cc(NC(=O)[C@H](N)C4CCCCC4)cc4c3c2C=NNC4=O)cn1 | -0.89 | -2.36 | -2.74 | -2.22 | -0.49 | -2.94 | -3.15 | 0.265 | -1.13 | -1.36 | -2.49 | -1.83 | -2.58 | 0.23 | -2.26 | -2.07 | -0.0773 | -2.35 | -0.415 | -1.87 |
| COC(=O)[C@]12CCC(C)(C)C[C@H]1[C@H]1C(=O)C=C3[C@@]4(C)C=C(C#N)C(=O)C(C)(C)[C@@H]4CC[C@@]3(C)[C@]1(C)CC2 [Bardoxolone Methyl] | -2.71 | -1.74 | -0.52 | -2.16 | -2.26 | -0.527 | -0.74 | -1.18 | -2.65 | -2.76 | -2.15 | -1.75 | -2.5 | -1.52 | -2.33 | -3.05 | -1.43 | -2.1 | -3.06 | -2.06 |
| C=CC(=O)Nc1cccc(Nc2nc(Nc3ccc(OCCOC)cc3)ncc2F)c1 | 0.188 | 0.343 | 0.615 | 0.623 | 0.493 | 0.497 | 0.589 | 0.424 | 0.253 | -0.205 | 0.482 | 0.518 | -0.261 | 0.628 | -0.871 | -0.0953 | 0.53 | -0.822 | 0.0733 | -1.54 |
| O=C(Cc1ccc(-c2ccc(OCCN3CCOCC3)cc2)cn1)NCc1ccccc1 | -0.739 | -1.74 | -1.61 | -1.42 | -0.78 | -2.15 | -0.655 | -1.31 | -1.37 | -1.12 | -1.75 | -1.24 | -1.46 | -1.74 | -1.47 | -1.38 | -2.18 | -0.802 | -0.846 | -1.09 |
